# Test results as given in PubChem BioAssay AID504333 (National Center for Advancing Translational Sciences (NCATS), 2011).
# “And” between values parts separate entries of the source, which are not always exact repeats. Equal values may be shown once. Screen size: about 360,000 compounds; about 16,000 (4.4%) were called active. The shares of active, inactive and inconclusive entries below differ from those in the screen. Calls come from the whole dose curve; as a rule, active = well fitted inhibition curve with a large enough effect; inconclusive = small, poorly fitted or top-dose-only effect; inactive = no such curve, though single readings can be large or run the other way. Where the call is inconclusive, the potency comes from a doubtful curve fit.
# Molecular target: Bromodomain adjacent to zinc finger domain protein 2B (Homo sapiens) (UniProt Q9UIF8)
# Sequence of UniProt Q9UIF8 (Q9UIF8 whole entry, looked up, the tested form may be a part): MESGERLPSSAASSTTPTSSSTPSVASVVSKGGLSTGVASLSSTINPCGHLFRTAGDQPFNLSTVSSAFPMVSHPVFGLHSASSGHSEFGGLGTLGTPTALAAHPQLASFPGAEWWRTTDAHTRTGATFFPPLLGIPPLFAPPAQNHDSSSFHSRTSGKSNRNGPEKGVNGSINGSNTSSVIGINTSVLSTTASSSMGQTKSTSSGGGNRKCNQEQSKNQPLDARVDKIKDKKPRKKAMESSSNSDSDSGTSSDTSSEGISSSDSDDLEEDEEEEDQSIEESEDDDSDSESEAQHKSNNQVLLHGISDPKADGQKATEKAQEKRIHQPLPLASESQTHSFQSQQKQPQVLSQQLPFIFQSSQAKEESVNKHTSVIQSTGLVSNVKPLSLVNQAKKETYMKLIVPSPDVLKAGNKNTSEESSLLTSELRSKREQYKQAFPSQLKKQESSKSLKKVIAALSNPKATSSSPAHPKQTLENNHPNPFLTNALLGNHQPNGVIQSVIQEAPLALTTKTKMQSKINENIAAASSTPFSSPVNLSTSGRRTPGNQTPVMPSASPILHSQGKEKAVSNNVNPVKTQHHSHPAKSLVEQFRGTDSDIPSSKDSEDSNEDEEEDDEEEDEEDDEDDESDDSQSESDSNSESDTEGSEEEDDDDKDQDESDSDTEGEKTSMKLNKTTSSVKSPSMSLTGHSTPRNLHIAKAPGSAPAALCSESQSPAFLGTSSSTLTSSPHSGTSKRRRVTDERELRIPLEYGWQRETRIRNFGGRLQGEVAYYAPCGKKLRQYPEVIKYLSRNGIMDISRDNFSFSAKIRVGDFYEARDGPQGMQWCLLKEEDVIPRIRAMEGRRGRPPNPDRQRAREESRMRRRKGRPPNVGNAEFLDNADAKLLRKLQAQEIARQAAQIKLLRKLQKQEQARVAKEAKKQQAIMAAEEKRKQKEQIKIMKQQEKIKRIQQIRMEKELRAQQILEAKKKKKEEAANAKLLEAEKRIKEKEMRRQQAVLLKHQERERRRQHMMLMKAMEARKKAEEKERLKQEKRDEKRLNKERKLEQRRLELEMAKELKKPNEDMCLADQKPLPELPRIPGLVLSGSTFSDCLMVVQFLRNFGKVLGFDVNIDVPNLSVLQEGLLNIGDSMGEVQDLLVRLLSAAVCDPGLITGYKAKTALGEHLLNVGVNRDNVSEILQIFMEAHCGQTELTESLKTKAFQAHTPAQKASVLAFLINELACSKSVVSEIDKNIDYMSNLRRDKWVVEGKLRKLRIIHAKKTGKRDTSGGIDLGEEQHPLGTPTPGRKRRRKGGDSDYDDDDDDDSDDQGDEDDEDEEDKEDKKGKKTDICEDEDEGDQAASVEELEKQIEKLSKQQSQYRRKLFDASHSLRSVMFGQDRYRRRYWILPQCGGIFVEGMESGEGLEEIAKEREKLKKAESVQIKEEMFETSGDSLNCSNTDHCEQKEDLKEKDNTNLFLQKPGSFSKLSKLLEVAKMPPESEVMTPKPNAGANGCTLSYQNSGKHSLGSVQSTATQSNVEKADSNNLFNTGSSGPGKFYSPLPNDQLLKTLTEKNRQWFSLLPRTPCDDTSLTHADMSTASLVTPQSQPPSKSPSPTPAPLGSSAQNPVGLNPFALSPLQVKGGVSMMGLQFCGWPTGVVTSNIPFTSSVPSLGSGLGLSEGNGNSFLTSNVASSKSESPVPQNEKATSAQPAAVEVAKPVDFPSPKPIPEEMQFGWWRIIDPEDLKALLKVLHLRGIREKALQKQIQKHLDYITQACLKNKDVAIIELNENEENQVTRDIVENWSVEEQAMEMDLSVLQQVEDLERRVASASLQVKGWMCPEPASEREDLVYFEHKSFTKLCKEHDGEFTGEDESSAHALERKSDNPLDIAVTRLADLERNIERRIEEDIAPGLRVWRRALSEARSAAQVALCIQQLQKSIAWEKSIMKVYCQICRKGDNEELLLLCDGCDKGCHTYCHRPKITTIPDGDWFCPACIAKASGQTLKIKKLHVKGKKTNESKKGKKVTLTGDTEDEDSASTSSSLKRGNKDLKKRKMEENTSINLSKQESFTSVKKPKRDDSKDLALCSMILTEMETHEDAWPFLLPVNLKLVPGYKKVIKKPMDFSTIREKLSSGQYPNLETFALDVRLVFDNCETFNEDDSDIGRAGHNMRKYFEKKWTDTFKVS
# Test: qHTS Assay for Inhibitors of BAZ2B; note: nearly all actives have a fitted effect of over 60% in size
# Conditions: AlphaScreen BAZ2B-H3K14Ac peptide displacement; series mostly up to 114 µM
# In short: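 BAZ2B 50 nM plus b-H3(5-23)K14Ac 50 nM, PBS pH 7.4/0.01% Tween-20, 30 min RT; compound added (max 110 uM), 30 min RT; streptavidin donor/Ni-chelate acceptor beads 10 ug/mL final, 20 min dark; AlphaScreen read.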
# Potency is the fitted concentration of half-maximal effect; tags give direction and shape of the fitted curve.
row,Compound,Potency
1,Cc1cccc(NC(=O)CCC(=O)c2cccs2)n1,"inconclusive: 50.1 µM [inhibitor, partial curve]"
2,Clc1cc(Br)ccc1OCCn1ccnc1,active: 22.4 µM
3,COc1ccc(NC(=O)Cc2noc3ccc(C)cc23)cc1Cl,inactive
4,O=C(Nc1ccccc1)N(Cc1ccccc1)C1=NCCS1,"inconclusive: 39.8 µM [inhibitor, single point]"
5,Cc1ccc(S(=O)(=O)Nc2cccc(NC(=O)CN3CCCCC3)c2)cc1,"inconclusive: 56.2 µM [inhibitor, partial curve]"
6,COc1ccc(CNC(=O)c2cc(S(=O)(=O)N3CCOCC3)cn2C)cc1,"inconclusive: 39.8 µM [inhibitor, single point]"
7,O=C(NCC1CCCO1)/C(=C\c1cccc([N+](=O)[O-])c1)NC(=O)c1ccccc1 (stereo not given),inactive
8,O=S(=O)(Nc1cccc(-c2ccc(N3CCCCCC3)nn2)c1)c1ccc(C(F)(F)F)cc1,"inconclusive: 70.8 µM [inhibitor, single point]"
9,O=C1C2Sc3[nH]c(=O)sc3C(c3cc([N+](=O)[O-])ccc3O)C2C(=O)N1c1ccccc1 (stereo not given),"inconclusive: 79.4 µM [inhibitor, single point]"
10,Cc1ccc(OCC(=O)N(Cc2ccc(N(C)C)cc2)C2CCS(=O)(=O)C2)cc1C (stereo not given),active: 44.7 µM
11,Cc1ccc(NC(=O)C(C)Sc2nnc(C)n2C)cc1 (stereo not given),"inconclusive: 89.1 µM [inhibitor, single point]"
12,COC(=O)c1ccc(NC(C(=O)OC)C(C)C)c([N+](=O)[O-])c1 (stereo not given),"inconclusive: 39.8 µM [inhibitor, partial curve]"
13,Cc1ccc(NC(=O)Cn2nnc(C(=O)NCc3ccc4c(c3)OCO4)c2N)cc1Cl,inactive
14,Cc1cc(C(=O)COC(=O)CN(C)S(=O)(=O)c2ccc(Cl)cc2)c(C)n1CC1CCCO1 (stereo not given),"inconclusive: 89.1 µM [inhibitor, single point]"
15,COc1cnc(-c2ccccn2)[nH]c1=O,active: 1.26 µM
16,COc1ccc2[nH]cc(S(=O)(=O)c3ccc(C)c(C)c3)c(=O)c2c1,inactive
17,CSCC[C@H](NC(=O)c1ccc(Cl)c([N+](=O)[O-])c1)c1nc2ccccc2[nH]1,"inconclusive: 39.8 µM [inhibitor, full curve, poor fit]"
18,COC(=O)C1=C(C(=O)OC)SC2(S1)C(C(=O)OC)=C(C(=O)OC)SC1=C2c2cc(C)cc(C)c2NC1(C)C,"inconclusive: 0.708 µM [inhibitor, full curve, poor fit]"
19,c1ccc(-c2cc(-c3ccncc3)nc3ccc4ccccc4c23)cc1,inactive
20,CC1(C)C(c2ccccc2)=NC(c2ccc(Br)cc2)N1O (stereo not given),inactive
21,O=C(NCCNCc1ccccn1)c1ccco1,"inconclusive: 70.8 µM [inhibitor, single point]"
22,COc1ccccc1-c1noc(-c2ccc(NC(C)C)c([N+](=O)[O-])c2)n1,"inconclusive: 89.1 µM [inhibitor, single point]"
23,CCC1CCCCN1CC(C)(C)NS(=O)(=O)c1ccccc1 (stereo not given),"inconclusive: 89.1 µM [inhibitor, single point]"
24,CN1C(C(=O)Nc2ccc(OC(F)(F)F)cc2)=CC(c2ccco2)=NS1(=O)=O,"inconclusive: 39.8 µM [inhibitor, full curve]"

row,Compound,Potency
1,Cc1ccc(S(=O)(=O)NCCOc2nc(N(C)C)nc(N3CCOCC3)n2)cc1,inactive
2,COc1ccc(Nc2c(-c3ccccn3)nc3ccc(Cl)cn23)cc1,active: 1.58 µM
3,O=c1c2ccccc2nc2c3ccccc3c(NCc3ccccn3)nn12,active: 50.1 µM
4,COc1ccccc1/C=C/C(=O)Nc1ccc(S(=O)(=O)Nc2cc(C)nc(C)n2)cc1,"inconclusive: 89.1 µM [inhibitor, single point]"
5,O=C(NCc1ccccc1)c1cnc(N2CCCCC2)c2ccccc12,inactive
6,Cc1nc(N2CCN(c3ccccc3)CC2)c2c3c(sc2n1)CCC3,"inconclusive: 25.1 µM [inhibitor, full curve]"
7,CCN1/C(=C/C=C/c2sc3ccccc3[n+]2CC)Sc2ccccc21,active: 14.1 µM
8,Cc1ccc(C2=NNC(c3ccc(Cl)cc3)=Nc3ccccc32)o1,"inconclusive: 79.4 µM [inhibitor, single point]"
9,Cc1cccc(C2(c3cccc(C)c3)CC2C(=O)Nc2ccc([N+](=O)[O-])cc2O)c1 (stereo not given),"inconclusive: 39.8 µM [inhibitor, full curve]"
10,c1ccc2c3c(cc(N4CCOCC4)c2c1)OC1(N2CCOCC2)CCCCC1O3 (stereo not given),"inconclusive: 39.8 µM [inhibitor, partial curve]"
11,COc1ccc(CN2CCN(c3ccccn3)CC2)c(OC)c1,active: 79.4 µM
12,O=S(=O)(c1cccc2nsnc12)N1CCN(C/C=C/c2ccccc2)CC1,"inconclusive: 50.1 µM [inhibitor, partial curve]"
13,O=C(N/N=C/c1c[nH]c2ccccc12)c1ccccc1,inactive
14,Oc1ccc(N=Cc2ccc(OCc3ccccc3)cc2)cc1,"inconclusive: 44.7 µM [inhibitor, partial curve]"
15,COc1cc(OC)c(N(C)C(=O)c2sc3nc4n(c(=O)c3c2C)CCCC4)cc1Cl,inactive
16,CCn1c(=O)cc(OCC(=O)N2CCN(c3ccc(F)cc3)CC2)c2ccccc21,"inconclusive: 79.4 µM [inhibitor, partial curve]"
17,O=C(Cn1nc(-c2ccc(Cl)cc2)ccc1=O)N1CCN(c2ccccc2)CC1,"inconclusive: 100 µM [inhibitor, single point]"
18,Cc1cccnc1NC(=S)Nc1ccc(F)cc1F,"inconclusive: 31.6 µM [inhibitor, single point]"
19,O=C(c1cc(-c2ccc(O)cc2)on1)N1CCN(c2ccccc2)CC1,"inconclusive: 70.8 µM [inhibitor, partial curve] and inconclusive: 70.8 µM [inhibitor, single point]"
20,CC(NC(=O)Cn1cc(C(=O)C2CC2)c2ccccc21)c1ccccc1 (stereo not given),inactive
21,CCN(CCO)Cc1cn[nH]c1-c1ccc(C)c(C)c1,active: 56.2 µM
22,NS(=O)(=O)c1ccc(NC(=O)COC(=O)COc2ccc3ccccc3c2)cc1,"inconclusive: 100 µM [inhibitor, partial curve]"
23,CCOc1cccc(C(=O)Nc2nnc(-c3ccco3)s2)c1,"inconclusive: 89.1 µM [inhibitor, single point]"
24,COc1ccc(-c2csc(N3CCN(c4cc(C)nc5ccccc45)CC3)n2)cc1OC,"inconclusive: 39.8 µM [inhibitor, partial curve]"

row,Compound,Potency
1,CC1CC(C)CN(CCOc2cccc3ccccc23)C1 (stereo not given),inactive
2,Cc1ccccc1CSCC(=O)NCc1ccco1,"inconclusive: 50.1 µM [inhibitor, partial curve]"
3,CCn1nnnc1SCC(=O)c1ccc2c(c1)OCCO2,inactive
4,O=C(NC(=S)Nc1ccc(CN2CCCCC2)cc1)c1ccco1,"inconclusive: 79.4 µM [inhibitor, single point]"
5,Cn1c(SCC(=O)N2CCc3ccccc32)nc2cccnc21,inactive
6,COc1ccc(-n2cccc2/C=C2\C(=N)N3N=C(c4ccco4)SC3=NC2=O)cc1,active: 39.8 µM
7,COc1ccc(-c2ccc(N(C)C)cc2)cc1[C@H]1[C@H]2C=CC[C@@H](C)[C@@H]2C(=O)N1Cc1ccccc1,"inconclusive: 12.6 µM [inhibitor, partial curve, poor fit]"
8,O=[N+]([O-])/C(C(Cl)=C(Cl)Cl)=C1\Nc2ccccc2O1,active: 50.1 µM
9,COc1ccc(OC)c(CNC(=O)Cn2nc(C)c3c(C)n(-c4ccc(C)cc4)nc3c2=O)c1,"inconclusive: 79.4 µM [inhibitor, single point]"
10,C/C(=N/NS(=O)(=O)c1ccc(Br)cc1)c1ccc(C)o1,"inconclusive: 89.1 µM [inhibitor, single point]"
11,CC(=O)Nc1ccc(SCC(=O)Nc2ccccc2-c2ccccc2)cc1,"inconclusive: 100 µM [inhibitor, single point]"
12,COc1cc2c(cc1OC)C1=C(C#N)CCC(=NC(=O)c3ccc(Cl)cc3)N1CC2,inactive
13,CC(/C=C/C1(O)C(C)CC(O)CC1(C)C)OC1OC(CO)C(O)C(O)C1O (stereo not given),"inconclusive: 89.1 µM [inhibitor, single point]"
14,CC(=O)c1ccc(NC(=O)CCc2nc3sc4c(c3c(=O)[nH]2)CCCC4)cc1,active: 56.2 µM
15,Cc1cccc(N2CCN(C(=O)c3ccc(NS(=O)(=O)c4ccc5[nH]c(=O)[nH]c5c4)cc3)CC2)c1C,"inconclusive: 39.8 µM [inhibitor, partial curve]"
16,COCCn1c(-c2ccccc2)cnc1SCC(=O)Nc1cccc2ccccc12,active: 44.7 µM
17,O=C(CSc1nc(-c2ccc(F)cc2)cc(C(F)(F)F)n1)NCCc1ccccc1,"inconclusive: 89.1 µM [inhibitor, single point]"
18,N#Cc1nc(-c2ccc(Cl)cc2)oc1N1CCCCC1,active: 39.8 µM
19,O=C(CSc1cn(CC(=O)N2CCCCC2)c2ccccc12)Nc1ccc(C(F)(F)F)cc1,inactive
20,Cc1ccc(-c2ccc(/C=N/NC(=S)Nc3ccccc3)o2)cc1[N+](=O)[O-],"inconclusive: 28.2 µM [inhibitor, full curve]"
21,Cc1ccc(C2SCCN2C(=O)c2ccc([N+](=O)[O-])cc2)cc1 (stereo not given),"inconclusive: 89.1 µM [inhibitor, single point]"
22,Cc1ccc(NC(=O)CSc2nc(-c3ccccc3Cl)nc3cc(=O)[nH]n23)c(C)c1,active: 89.1 µM
